# Source: the BET-seq Pho4 binding data (Le et al. 2018)
# The other results are listed elsewhere or left out. Values were computed here from the reads of four pooled replicates and scatter widely.
# Target: T1, Pho4 (S. cerevisiae) (UniProt P07270)
# T1 sequence: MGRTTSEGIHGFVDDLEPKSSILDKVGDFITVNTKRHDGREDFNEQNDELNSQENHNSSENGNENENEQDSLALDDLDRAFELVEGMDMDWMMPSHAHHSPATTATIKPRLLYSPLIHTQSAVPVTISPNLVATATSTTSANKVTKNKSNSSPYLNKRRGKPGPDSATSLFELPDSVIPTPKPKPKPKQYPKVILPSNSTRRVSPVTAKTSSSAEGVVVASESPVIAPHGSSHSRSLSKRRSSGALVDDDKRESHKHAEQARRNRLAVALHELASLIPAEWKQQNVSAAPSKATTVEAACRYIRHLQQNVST
# Assay: relative binding free energy (BET-seq); higher = weaker binding
# Conditions: reference: library average
row,Sequence,relative binding free energy [kcal/mol]
1,GCGGTCACGTGAGAGG,0.3
2,GGGTCCACGTGAGGAG,0.2
3,GTTGTCACGTGGGCGG,-0.03
4,GAATTCACGTGGTTAG,0.34
5,TACGGCACGTGGAGGG,-0.1
6,GTGGGCACGTGGTGGC,-0.05
7,AGTTCCACGTGAGGTA,0.23
8,AGTACCACGTGTGGGT,-0.08
9,CCGGTCACGTGTCTGG,0.29
10,CAATTCACGTGGTGGG,0.29
11,TCTGGCACGTGCGGTG,-0.15
12,ACGGCCACGTGGGGGT,-0.19
13,GCTTACACGTGTAGGG,0.14
14,TGGCGCACGTGTAGAT,0.18
15,GATGGCACGTGTCATG,-0.03
16,GCGGCCACGTGGTGGG,-0.28
17,ATCTTCACGTGTTTGT,0.23
18,GGGTGCACGTGAAGGG,0.24
19,ATTGACACGTGGGCAA,-0.07
20,GGTTGCACGTGGTAGA,-0.06
21,AGATGCACGTGCTGTT,-0.07
22,TAGTGCACGTGTGGCA,-0.12
23,CAGGGCACGTGGGGTC,-0.23
24,TTTGCCACGTGGTTTC,-0.15
25,CTAGGCACGTGGCAGG,-0.23

row,Sequence,relative binding free energy [kcal/mol]
1,GGGCGCACGTGCAAGG,0.02
2,AGGTGCACGTGAGACT,0.19
3,TGCGCCACGTGTTGTT,-0.03
4,TGTTACACGTGTCAAT,0.15
5,GGTTTCACGTGGCGGC,0.36
6,TTGTACACGTGTGAGC,0.24
7,CTGGGCACGTGTGTTA,-0.07
8,TGGCGCACGTGACGGT,-0.04
9,TGTCTCACGTGGGTGC,0.17
10,GGGGACACGTGAGTAG,0.3
11,TTAATCACGTGTTGTC,0.18
12,TAGGGCACGTGGAATA,-0.17
13,TGAGGCACGTGTAGGA,-0.1
14,TATCGCACGTGTGATG,0.01
15,CGTGCCACGTGGGTCG,-0.17
16,AGGGACACGTGATCTT,0.32
17,TTTACCACGTGTATGG,-0.13
18,CTTTTCACGTGTTATG,0.29
19,TTAGTCACGTGGCGAA,0.05
20,TGGGTCACGTGCCAAG,0.16
21,GTGTGCACGTGTCAGA,0.01
22,AGTTACACGTGGCGAT,0.01
23,AGGGTCACGTGAGAGA,0.2
24,ATAGTCACGTGTTATA,0.02
25,GTGGTCACGTGACTTG,0.4

row,Sequence,relative binding free energy [kcal/mol]
1,ATTTTCACGTGTCATA,0.26
2,TAGCTCACGTGGGGCG,0.01
3,AGACGCACGTGGATGT,-0.08
4,CAGGTCACGTGGATGG,0.14
5,GGGGGCACGTGAGGTC,0.12
6,GGTATCACGTGGGAGC,0.12
7,TTGCACACGTGTTAGT,0.01
8,TTTGTCACGTGTCCGG,0.13
9,CTGCTCACGTGTTTGT,0.19
10,TGGGCCACGTGAGGAT,0.15
11,ATGTACACGTGTATTA,0.07
12,TTATACACGTGAATGG,0.2
13,TTTTTCACGTGGTGAC,0.26
14,TTTATCACGTGATATA,0.14
15,TACGACACGTGGTTGT,-0.04
16,TTGAGCACGTGGCGCG,-0.25
17,TATTGCACGTGTCTAT,-0.02
18,ATTGACACGTGGAGTC,0.08
19,GGCGTCACGTGGAGGG,0.07
20,AGATACACGTGTTGGG,-0.03
21,AGGTTCACGTGGAAAT,0.31
22,GTCGTCACGTGTTGTG,0.24
23,TCGATCACGTGTATGT,0.28
24,TGCAACACGTGTTTGG,-0.01
25,GAGGGCACGTGGCTGG,-0.23

row,Sequence,relative binding free energy [kcal/mol]
1,GTGTTCACGTGGCGCA,0.36
2,AAAGGCACGTGTGTTC,0.06
3,TAGGTCACGTGTTTGC,0.02
4,CTTTACACGTGTTGTA,0
5,GTAATCACGTGAAGTT,0.25
6,AGGATCACGTGTGAGT,0.23
7,TATTTCACGTGTGGCG,0.27
8,AAAGGCACGTGGTAAA,0.03
9,TACGTCACGTGTTAGG,0.1
10,AGTTGCACGTGTTTTC,0.03
11,CGGTGCACGTGGTCAG,-0.08
12,GTTGTCACGTGTTTTG,0.25
13,GGCTTCACGTGGTTTT,0.3
14,TCGATCACGTGGGGTG,-0.1
15,ATGTACACGTGGTTTA,-0.01
16,TATTGCACGTGCACTG,0
17,GGTTACACGTGGGTTA,0.19
18,TTGATCACGTGTACTT,0.08
19,AGGCTCACGTGTGAGA,0.28
20,GTTCGCACGTGTTGGT,-0.03
21,GTGTACACGTGTTATC,0.17
22,GGAGGCACGTGGTCGG,-0.19
23,AGGAGCACGTGCAGTG,-0.2
24,ATTAACACGTGTGAGC,0.2
25,GTTGGCACGTGGCAGA,-0.13

row,Sequence,relative binding free energy [kcal/mol]
1,TAATGCACGTGGAGAT,0.03
2,TTGGGCACGTGTTGAG,-0.11
3,GGGGTCACGTGGTAAA,0.2
4,AGGGGCACGTGCCCGG,-0.19
5,TTTAGCACGTGCAATA,0.02
6,ATGACCACGTGGTGAG,-0.02
7,AATGACACGTGAGGTG,0.27
8,ACAGTCACGTGGTATG,-0.13
9,ATGTGCACGTGCATTG,0
10,GAAGGCACGTGGCGGC,-0.08
11,GTCGACACGTGTGGGT,0.21
12,AGGGGCACGTGATTGC,0.1
13,GATATCACGTGCGTTG,0.2
14,TGAGTCACGTGTGGTT,0.22
15,GGCATCACGTGTGGAT,0.38
16,TTAGACACGTGCGGTA,-0.11
17,TGAAGCACGTGGGTAC,-0.24
18,TAATACACGTGTGTGT,0
19,AGAGGCACGTGTTAAG,-0.03
20,TGATTCACGTGCGGAG,0.18
21,TTATTCACGTGAAAAT,0.25
22,GTGAGCACGTGGTTCA,-0.08
23,TTTAACACGTGTTGAG,-0.04
24,TAATCCACGTGGAGGT,0.06
25,CGGGTCACGTGGGTGG,-0.04

row,Sequence,relative binding free energy [kcal/mol]
1,TGTCTCACGTGCAGGA,0.42
2,TTTTGCACGTGGACAT,-0.13
3,CTAGTCACGTGGTTAA,0.03
4,ACCGGCACGTGGTTGG,-0.17
5,AGTGACACGTGCTTGT,-0.04
6,GATATCACGTGGTCAG,0.25
7,CGGGTCACGTGTACTG,0.14
8,TTAGACACGTGTGTGC,-0.11
9,AATGGCACGTGGGAAG,-0.21
10,GTAGTCACGTGACTGA,0.34
11,TGTCGCACGTGGAAAT,0.06
12,TAGTTCACGTGTGATA,0.14
13,CAGGACACGTGTCGGG,0.15
14,CGTGTCACGTGATCTG,0.07
15,CTTAGCACGTGTTAGT,-0.03
16,GGTTGCACGTGATTTA,0.18
17,TGCGGCACGTGGTGGT,-0.11
18,AATTCCACGTGATGGG,0.3
19,CTTAACACGTGGAGTG,-0.07
20,TCATTCACGTGTAGGA,0.29
21,AGTGTCACGTGGACAT,0.12
